# Results reported in the supplement of paper PMC3334620.
# In all, about 33,000 sequences were measured (“E-score (-0.5 to 0.5)”: median about -0.056, highest 2% from about 0.38 on). Some of the results follow.
# Molecular target: Stb4 (UniProt P50104)
# Test: PBM E-score (8-mer binding enrichment) (E-score (-0.5 to 0.5)); higher = stronger / more preferred TF binding; most listed sequences are background and not binding sites
# Details: protein concentration: 200 nM; construct: GST-DNA-binding domain
# Method in brief: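 Bound GST-tagged yeast transcription factors, applied at about 100-200 nM to double-stranded universal all-10-mer Agilent arrays, were detected with fluorescent anti-GST. Scans were normalised with masliner. A modified Wilcoxon-Mann-Whitney statistic, the E-score, was assigned to each ungapped eight-base word pooled with its reverse complement by the Universal PBM Analysis Suite.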
row,Sequence,PBM E-score
1,GGAGCAGA,0.0128
2,AGAAGTAT,-0.134
3,CGCGTAGA,-0.11
4,ACCGAAGG,0.243
5,GAGGTGGA,0.0823
6,GCCGAGGA,0.4
7,TCGTGACA,0.0104
8,CCCCCGGG,0.214
9,GGGTCCAC,-0.0879
10,AACTCGGC,0.364
11,ACTGCAGA,-0.0926
12,CTGCGGAC,-0.0984
13,CTAGTTAA,-0.122
14,ACCACAGC,-0.0656
15,CTGGAAAA,-0.00258
16,TACTAAGA,-0.027
17,CGAGTCCG,0.251
18,AAGACTGG,-0.0599
19,CGACAGAG,-0.101
20,TGGAGCCA,-0.26
21,CCTCGTCG,0.0651
22,CAGGGGTC,-0.16
23,AGATAGGC,-0.155
24,TAAACCAA,-0.137
25,ATTTACTC,-0.168

row,Sequence,PBM E-score
1,AGCGTAAT,-0.107
2,CGGCTGCC,0.269
3,GATTTAGC,0.0709
4,TCCAGTCA,-0.0411
5,AGGATGTG,-0.0659
6,ACGGGCCG,0.277
7,CCAACGGG,0.165
8,CGGTATCA,0.164
9,AGAACATG,-0.0757
10,GACGTCCC,-0.0179
11,AGGTCGGA,0.345
12,CATGTATC,-0.143
13,TGCTTAAA,-0.0827
14,GCCCTTCA,-0.158
15,ATCCACAG,-0.177
16,ATTATGAG,-0.0617
17,AAAGTTGT,0.00681
18,AACGAGGC,-0.13
19,AGTCTTCA,-0.237
20,AGTAGGGG,0.0719
21,GAGCAACC,0.0935
22,GGCTGTGA,-0.116
23,CGAACGGC,0.18
24,ATTGAATA,0.0122
25,ATTAGACG,-0.109

row,Sequence,PBM E-score
1,CTTCGGCC,0.218
2,ATAGACAT,-0.258
3,GCATGACA,-0.289
4,GGAGACCC,0.0398
5,GATTGCCA,-0.038
6,CTGCGTTA,-0.122
7,AACCAAAT,0.116
8,TCTGGGAA,-0.208
9,AGCTACCT,-0.0284
10,ACTCGTCG,-0.126
11,TATTTTCA,-0.0408
12,ATTGCGAG,-0.0368
13,AATCGACA,0.0906
14,CACACCAA,0.0484
15,GCCACCAA,-0.238
16,ATGTCATA,-0.0715
17,CTGCTCCA,-0.151
18,TCGTCGAA,-0.33
19,AGCTTTTG,-0.112
20,GTTCTAGA,0.055
21,CACTAGGG,-0.332
22,GGACACAC,0.136
23,AGTACAAC,0.019
24,ACTCAGGG,-0.0932
25,CGAGCGCG,0.235

row,Sequence,PBM E-score
1,CCTAGTTC,-0.0435
2,CAATGCGG,0.0433
3,AAGTATAG,-0.0669
4,AGCCGCGC,0.182
5,AGAGCGTG,0.0442
6,CCATGACC,-0.123
7,ATGCGAAA,-0.0603
8,CTTATCTA,-0.0636
9,ACACAGGT,-0.37
10,ATAAGTAG,-0.157
11,AGTGGGAC,-0.0624
12,AGGTGGCC,-0.11
13,CACAAGGG,-0.193
14,AATGAAGA,-0.166
15,GGCCCGCA,0.151
16,CCTTCCAG,-0.252
17,AGATGCCA,-0.263
18,GGTCTCCA,-0.167
19,GAGTCTTA,-0.104
20,AATTACGA,-0.0893
21,CCTTGACG,-0.0355
22,AGGATCTA,-0.258
23,GGAAAAGA,0.0273
24,ATTACGGA,0.296
25,GGCCGCAC,-0.00613

row,Sequence,PBM E-score
1,AATCCCGT,0.303
2,TCGTAACA,0.0194
3,GATGTAAA,-0.182
4,AGAGGTAA,-0.00757
5,GATCCGAA,0.482
6,TATGATCA,-0.194
7,AGGGAAAC,-0.0995
8,ATGGAACA,-0.272
9,CACTAAAA,-0.1
10,CGTTAAAC,-0.127
11,CCCTTAGC,0.0903
12,CTCCTTGC,-0.268
13,GGCCGAAA,0.319
14,AACGAAGA,-0.134
15,AAACGGTC,0.0505
16,CCTATGGC,-0.183
17,AGAATGGG,-0.0976
18,GCCGCGCA,0.0339
19,ACTCAGGA,-0.137
20,AAAACGTG,-0.208
21,AAGATCGG,0.339
22,GCGGTAAC,0.178
23,CTCACTGA,-0.243
24,GGGCAGAC,-0.0126
25,CACCGGCC,0.0878

row,Sequence,PBM E-score
1,GGCAGTGA,0.0105
2,ACTTTCGA,-0.0194
3,GCGTACGC,0.0157
4,AAAAGTTA,-0.0852
5,AATCGGCA,0.32
6,CAAAAGAG,-0.0893
7,CCTACAGG,-0.142
8,TCTTTCCA,-0.0186
9,CCAGCCCG,0.0792
10,AAAGGTAA,-0.18
11,ATAACAAG,0.0631
12,CGATGGAC,0.0198
13,AATTCAAC,0.015
14,GACTACGC,-0.0939
15,ACTATCCG,0.45
16,CTCCGGAA,0.391
17,ATATTTGG,0.0131
18,CCGGCACA,0.307
19,ATATAAAA,0.0335
20,AGAGGCCG,-0.165
21,ACGGTTTA,-0.00687
22,ACTTATCT,-0.211
23,ATTGATGC,-0.0518
24,CGATCGAG,0.225
25,GCATAACA,-0.262

row,Sequence,PBM E-score
1,CACGAGAA,-0.167
2,CCATCGGA,0.369
3,CTCGTGAA,-0.127
4,GCGGTTAA,0.17
5,GACCTAGC,-0.118
6,GTGAACGA,-0.0944
7,GCTTTTAC,0.171
8,ATCTTGGA,-0.115
9,ACTCTAGA,0.00903
10,CATGCCCA,-0.213
11,ACGAAAGG,-0.092
12,CCCTAATC,-0.0442
13,GCGGCCGC,0.114
14,ACACTCAT,-0.112
15,ACGAAGTC,-0.264
16,AGCGTGTG,-0.0283
17,CAACGACG,-0.261
18,ATAAACGA,0.0133
19,CTGAATCA,-0.223
20,GCATGGAC,-0.0106
21,CAGACCGG,0.14
22,CGAGACAC,0.134
